PubChem BioAssay AID485297 (National Center for Advancing Translational Sciences (NCATS), 2010)
Screen size: about 320,000 compounds; about 9,100 (2.8%) were called active. The shares of active, inactive and inconclusive entries below differ from those in the screen. Calls follow the shape of the dose curve; as a rule, active = well fitted activation curve with a large enough effect; inconclusive = small, poorly fitted or top-dose-only effect; inactive = no such curve, though single readings can be large or run the other way. Potencies of inconclusive entries are left out as doubtful fits.

Assay: qHTS Assay for Rab9 Promoter Activators; also: nearly all actives have a fitted effect of over 60% in size
Conditions: Huh7 Rab9 promoter-luciferase reporter, luminescence, 24 h; series mostly up to 9.22 µM
Procedure, shortened: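 Luminescence read-out: Huh7 cells stably expressing Rab9-luciferase, treated 24 h with compound at 37 °C, then lysed with luciferase reagent for 10 min at ambient before reading.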
Potency is read from the fitted curve at half-maximal effect; tags tell the direction and shape of the fitted curve.

Row | SMILES | Potency
1 | N#CCSc1ccc2nc(-c3ccccc3)cn2n1 | active: 2000 nM
2 | COc1ccc(OC)c(C(=O)NC(CC(N)=O)c2ccc(N3CCC(Cc4ccccc4)CC3)c([N+](=O)[O-])c2)c1 (configuration not stated) | inactive
3 | CCOc1ccc(CNC(=O)Nc2ccccc2)cc1 | inconclusive [activator, partial curve]
4 | O=C(Nc1ccc(C(=O)OC2CCCCC2)cc1)c1ccncc1 | inactive
5 | CCC/C=N/Nc1nc2ccccc2s1 | active: 2820 nM
6 | Cc1cc(C(=O)CSc2nc3ccccc3o2)c(C)n1CC1CCCO1 (configuration not stated) | active: 794 nM
7 | CC(=O)c1ccc(OCc2cc(C(=O)NC(C)c3cnn(C)c3)no2)cc1 (configuration not stated) | inconclusive [activator, single point]
8 | CCCc1nc(-c2ccc(-c3ccc(F)cc3)cc2)no1 | inconclusive [activator, single point]
9 | CC(C)Nc1nnc(SCC(=O)Nc2ccc3c(c2)C(=O)c2ccccc2C3=O)s1 | active: 3550 nM
10 | COc1ccc(CN=C(Nc2ccccc2)SC2CC(=O)NC2=O)cc1 (configuration not stated) | inconclusive [activator, partial curve]
11 | CC1CCN(C(=S)NCCc2ccccc2)CC1 | active: 2000 nM
12 | Cc1nn(-c2ccccc2)c(N)c1N=Nc1ccc(Cl)cc1 | active: 2000 nM
13 | Cc1ccc(OCc2cc(C(=O)NCCc3cccnc3)no2)cc1C | inconclusive [activator, single point]
14 | O=C(c1ccccc1-c1nc(-c2ccc(Cl)cc2)no1)N1CCCC1 | active: 3160 nM
15 | Cc1ccc(NC(=O)C2COc3ccccc3O2)cc1C (configuration not stated) | inconclusive [activator, partial curve]
16 | Cc1cc2cc3c(cc2nc1SCc1ccccn1)OCCO3 | inconclusive [activator, partial curve]
17 | CCC(C)NC(=O)Cn1c(COc2ccc(Cl)cc2Cl)nc2ccccc21 (configuration not stated) | inconclusive [activator, single point]
18 | c1ccc(-n2nnc(-c3cccnc3)n2)cc1 | active: 2820 nM
19 | Brc1c(CSc2nc3ccccc3o2)nc2ncccn12 | inconclusive [activator, partial curve]
20 | Cn1cc(-c2nc3ccccc3[nH]2)c2ccccc21 | inconclusive [activator, single point]
21 | C/C(=N\Nc1ccccc1)c1cccc(N)c1 | inconclusive [activator, single point]
22 | Nc1ccc(-c2nc3ccc(N)cc3s2)cc1 | inconclusive [activator, full curve]
